Source: a collection of fitness landscapes (doi:10.1016/j.celrep.2020.107928)
Whole data set: some 81,000 sequences, median “one-hybrid fitness for binding NBS DNA” near -0.1, cut for the highest 2% near 0.36. Some of the results follow.

B1: Caulobacter ParB omega fusion; a variant is named by its letters at X, in order, B8GW30 (parent)
chain: MESVVVGEPGMSEGRRGLGRGLSALLGEVDAAPAQAPGEQLGGSREAPIEILQRNPDQPRRTFREEDLEDLSNSIREKGVLQPILVRPSPDTAGEYQIVAGERAWRAAQRAGLKTVPIMVRELDDLAVLEIGIIENVQRADLNVLEEALSYKVLMEKFERTQENIAQTIGKSXSHVANXMRLLXLPDEVQSYLVSGELTAXHARAIAAAADPVALAKQIIEGGLSVRETEALARKAPNLSAGKSKGGRPPRVKDTDTQALESDLSSVLGLDVSIDHRGSTGTLTITYATLEQLDDLCNRLTRGI

Variants of: B1
Test: one-hybrid fitness for binding NBS DNA (the Noc-binding site; scaled: cognate 1, non-cognate 0); higher = stronger binding
Conditions: with NBS DNA site
Summary of the method: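 Fitness is the rescaled log change in variant-to-wild-type read ratio, measured by Illumina sequencing of plasmids before and after bacterial one-hybrid selection. The scale puts cognate at 1 and non-cognate at 0. Selection of Caulobacter ParB libraries, four specificity codons randomised, took place in E. coli USO with a HIS3 reporter, site 19 bp from the promoter, over 48 hours at 37°C on M9-minus-histidine with 0.1 mM IPTG and 5 mM 3-AT.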

| Variant | one-hybrid fitness for binding NBS DNA |
| --- | --- |
| NLSL | ≤ 0.2 |
| LMDN | ≤ 0.2 |
| TAMK | ≤ 0.2 |
| CTKV | ≤ 0.2 |
| REMF | ≤ 0.2 |
| IQWS | ≤ 0.2 |
| DDYT | ≤ 0.2 |
| APPY | ≤ 0.2 |
| KRVF | ≤ 0.2 |
| AKIQ | ≤ 0.2 |
| FFLV | ≤ 0.2 |
| KRSG | ≤ 0.2 |
| PNSP | ≤ 0.2 |
| EQAR | ≤ 0.2 |
| KESR | ≤ 0.2 |
| KSHC | ≤ 0.2 |
| AAFN | ≤ 0.2 |
| RRIA | 0.552 |
| FWLF | ≤ 0.2 |
| RNYQ | ≤ 0.2 |
| YALT | ≤ 0.2 |
| IHYC | ≤ 0.2 |
| AWVS | ≤ 0.2 |
| MLKG | ≤ 0.2 |

| Variant | one-hybrid fitness for binding NBS DNA |
| --- | --- |
| EKQG | ≤ 0.2 |
| PSWG | ≤ 0.2 |
| PTFM | ≤ 0.2 |
| QTVI | ≤ 0.2 |
| FVTS | ≤ 0.2 |
| HGPS | ≤ 0.2 |
| VDSL | ≤ 0.2 |
| MTQR | ≤ 0.2 |
| CGNW | ≤ 0.2 |
| ELRQ | ≤ 0.2 |
| GECF | ≤ 0.2 |
| ELLC | ≤ 0.2 |
| VVPE | ≤ 0.2 |
| PVYD | ≤ 0.2 |
| LLRA | ≤ 0.2 |
| QSPG | ≤ 0.2 |
| SHSS | ≤ 0.2 |
| NCGC | ≤ 0.2 |
| CERA | ≤ 0.2 |
| QMHN | ≤ 0.2 |
| PPLT | ≤ 0.2 |
| SEDG | ≤ 0.2 |
| LHHA | ≤ 0.2 |
| AANY | ≤ 0.2 |

| Variant | one-hybrid fitness for binding NBS DNA |
| --- | --- |
| EDGR | ≤ 0.2 |
| DYVY | ≤ 0.2 |
| LHGS | ≤ 0.2 |
| SENN | ≤ 0.2 |
| VKPI | ≤ 0.2 |
| QAPW | ≤ 0.2 |
| LCWF | ≤ 0.2 |
| PPQS | ≤ 0.2 |
| SLRL | ≤ 0.2 |
| APSD | ≤ 0.2 |
| PFFV | ≤ 0.2 |
| AART | ≤ 0.2 |
| FLTG | ≤ 0.2 |
| IRNN | ≤ 0.2 |
| TCPM | ≤ 0.2 |
| TILG | ≤ 0.2 |
| KQLT | ≤ 0.2 |
| DIPL | ≤ 0.2 |
| IDWT | ≤ 0.2 |
| RPCW | ≤ 0.2 |
| LRAA | ≤ 0.2 |
| AQLM | ≤ 0.2 |
| WFLS | ≤ 0.2 |
| HHLG | ≤ 0.2 |

| Variant | one-hybrid fitness for binding NBS DNA |
| --- | --- |
| RCAH | 0.219 |
| RNMY | ≤ 0.2 |
| PIFS | ≤ 0.2 |
| STPG | ≤ 0.2 |
| KLMW | ≤ 0.2 |
| VLMD | ≤ 0.2 |
| DPKL | ≤ 0.2 |
| LVLT | ≤ 0.2 |
| ACGK | ≤ 0.2 |
| THIS | ≤ 0.2 |
| TNVM | ≤ 0.2 |
| MHHT | ≤ 0.2 |
| LYTI | ≤ 0.2 |
| VWKA | ≤ 0.2 |
| ICQT | ≤ 0.2 |
| EQHC | ≤ 0.2 |
| QNPY | ≤ 0.2 |
| RISV | ≤ 0.2 |
| RAGG | ≤ 0.2 |
| RADM | ≤ 0.2 |
| ILDV | ≤ 0.2 |
| YAAR | ≤ 0.2 |
| PATL | ≤ 0.2 |
| DEKR | ≤ 0.2 |

| Variant | one-hybrid fitness for binding NBS DNA |
| --- | --- |
| NETR | ≤ 0.2 |
| QWLS | ≤ 0.2 |
| LELC | ≤ 0.2 |
| IIHE | ≤ 0.2 |
| YWII | ≤ 0.2 |
| GKDL | ≤ 0.2 |
| TKTW | ≤ 0.2 |
| PKDK | ≤ 0.2 |
| LCPT | ≤ 0.2 |
| ISTK | ≤ 0.2 |
| INYT | ≤ 0.2 |
| VTPP | ≤ 0.2 |
| HEKV | ≤ 0.2 |
| SDIT | ≤ 0.2 |
| MCFR | ≤ 0.2 |
| DPYH | ≤ 0.2 |
| QSPI | ≤ 0.2 |
| DIVS | ≤ 0.2 |
| RREH | 0.296 |
| QHTQ | ≤ 0.2 |
| YNRT | ≤ 0.2 |
| RERA | ≤ 0.2 |
| NDYP | ≤ 0.2 |
| WWPD | ≤ 0.2 |

| Variant | one-hybrid fitness for binding NBS DNA |
| --- | --- |
| MVQT | ≤ 0.2 |
| NYTI | ≤ 0.2 |
| RQRM | ≤ 0.2 |
| WISC | ≤ 0.2 |
| NSML | ≤ 0.2 |
| RITE | ≤ 0.2 |
| WEPW | ≤ 0.2 |
| LPYL | ≤ 0.2 |
| LFMW | ≤ 0.2 |
| QCQY | 0.265 |
| RPCL | ≤ 0.2 |
| FRDK | ≤ 0.2 |
| RFIP | ≤ 0.2 |
| MEGG | ≤ 0.2 |
| RQTY | ≤ 0.2 |
| TYPI | ≤ 0.2 |
| KDGW | ≤ 0.2 |
| SYSI | ≤ 0.2 |
| SKCS | ≤ 0.2 |
| VNPF | ≤ 0.2 |
| GAHA | ≤ 0.2 |
| LRLP | ≤ 0.2 |
| NKNG | ≤ 0.2 |
| DQTT | ≤ 0.2 |

| Variant | one-hybrid fitness for binding NBS DNA |
| --- | --- |
| NCPE | ≤ 0.2 |
| GINY | ≤ 0.2 |
| FMSR | ≤ 0.2 |
| VANC | ≤ 0.2 |
| WKHT | ≤ 0.2 |
| MSHS | ≤ 0.2 |
| APGM | ≤ 0.2 |
| CHKD | ≤ 0.2 |
| PEWT | ≤ 0.2 |
| PIVK | ≤ 0.2 |
| AKSV | ≤ 0.2 |
| VRHG | ≤ 0.2 |
| RHDM | ≤ 0.2 |
| RQWK | ≤ 0.2 |
| WAYI | ≤ 0.2 |
| HYDG | ≤ 0.2 |
| GRWE | ≤ 0.2 |
| SPPD | ≤ 0.2 |
| KRHK | ≤ 0.2 |
| HTQC | ≤ 0.2 |
| GYCG | ≤ 0.2 |
| SKKI | ≤ 0.2 |
| QSLT | 0.327 |
| RRRM | 0.651 |

| Variant | one-hybrid fitness for binding NBS DNA |
| --- | --- |
| NWCR | ≤ 0.2 |
| DTAQ | ≤ 0.2 |
| PNNS | ≤ 0.2 |
| MHSL | ≤ 0.2 |
| QKNK | ≤ 0.2 |
| LSFM | ≤ 0.2 |
| TRIS | ≤ 0.2 |
| RTRE | ≤ 0.2 |
| LWTG | ≤ 0.2 |
| KLPS | ≤ 0.2 |
| THFY | ≤ 0.2 |
| STSV | ≤ 0.2 |
| VDCC | ≤ 0.2 |
| ALQV | ≤ 0.2 |
| PRLY | ≤ 0.2 |
| NGAL | ≤ 0.2 |
| IISC | ≤ 0.2 |
| SFTL | ≤ 0.2 |
| KQWG | ≤ 0.2 |
| AAHM | ≤ 0.2 |
| DCEV | ≤ 0.2 |
| LWSG | ≤ 0.2 |
| YVSQ | ≤ 0.2 |
| NQWP | ≤ 0.2 |

| Variant | one-hybrid fitness for binding NBS DNA |
| --- | --- |
| TIDK | ≤ 0.2 |
| SMRC | ≤ 0.2 |
| WPST | ≤ 0.2 |
| PMRC | ≤ 0.2 |
| IHPR | ≤ 0.2 |
| FDVD | ≤ 0.2 |
| RSES | ≤ 0.2 |
| LFME | ≤ 0.2 |
| ALRQ | ≤ 0.2 |
| WQSG | ≤ 0.2 |
| SWYT | ≤ 0.2 |
| AALP | ≤ 0.2 |
| GSHK | ≤ 0.2 |
| GSNS | ≤ 0.2 |
| VCQS | ≤ 0.2 |
| FYPK | ≤ 0.2 |
| PAYK | ≤ 0.2 |
| RESA | ≤ 0.2 |
| SLMM | ≤ 0.2 |
| ARVW | ≤ 0.2 |
| DAIR | ≤ 0.2 |
| CMPL | ≤ 0.2 |
| MRMS | ≤ 0.2 |
| YMLG | ≤ 0.2 |

| Variant | one-hybrid fitness for binding NBS DNA |
| --- | --- |
| PHIL | ≤ 0.2 |
| IPCT | ≤ 0.2 |
| QLRI | 0.237 |
| GNHL | ≤ 0.2 |
| NGYI | ≤ 0.2 |
| LENG | ≤ 0.2 |
| PFKA | ≤ 0.2 |
| ANHT | ≤ 0.2 |
| PTQL | ≤ 0.2 |
| SSWR | ≤ 0.2 |
| FRHL | ≤ 0.2 |
| TQQN | ≤ 0.2 |
| AWYS | ≤ 0.2 |
| CAVL | ≤ 0.2 |
| AMYL | ≤ 0.2 |
| NNLS | ≤ 0.2 |
| ARQT | ≤ 0.2 |
| QCYW | ≤ 0.2 |
| GTCC | ≤ 0.2 |
| VSHY | ≤ 0.2 |
| TWAT | ≤ 0.2 |
| EDKG | ≤ 0.2 |
| CCES | ≤ 0.2 |
| TTPS | ≤ 0.2 |

| Variant | one-hybrid fitness for binding NBS DNA |
| --- | --- |
| PSHE | ≤ 0.2 |
| MGHR | ≤ 0.2 |
| ELAC | ≤ 0.2 |
| RMAA | ≤ 0.2 |
| DRLC | ≤ 0.2 |
| RPKV | ≤ 0.2 |
| YAMC | ≤ 0.2 |
| ATFT | ≤ 0.2 |
| YWSR | ≤ 0.2 |
| RCKY | 0.318 |
| AWLV | ≤ 0.2 |
| IVKK | ≤ 0.2 |
| ICYT | ≤ 0.2 |
| ISAN | ≤ 0.2 |
| MLGP | ≤ 0.2 |
| YFKC | ≤ 0.2 |
| VKNS | ≤ 0.2 |
| WAPQ | ≤ 0.2 |
| AQSH | ≤ 0.2 |
| CFSS | ≤ 0.2 |
| RFWG | ≤ 0.2 |
| LLCE | ≤ 0.2 |
| PVKH | ≤ 0.2 |
| PLKV | ≤ 0.2 |

| Variant | one-hybrid fitness for binding NBS DNA |
| --- | --- |
| EFLA | ≤ 0.2 |
| PALR | 0.208 |
| PNLG | ≤ 0.2 |
| EDAV | ≤ 0.2 |
| AMPV | ≤ 0.2 |
| PLQH | ≤ 0.2 |
| VVRM | ≤ 0.2 |
| LTGT | ≤ 0.2 |
| SNRL | ≤ 0.2 |
| AALS | ≤ 0.2 |
| EPWR | ≤ 0.2 |
| YGRR | ≤ 0.2 |
| QRCE | 0.223 |
| ALGF | ≤ 0.2 |
| WQPV | ≤ 0.2 |
| PDAC | ≤ 0.2 |
| IVTL | ≤ 0.2 |
| DEKT | ≤ 0.2 |
| QTIR | 0.499 |
| DNPY | ≤ 0.2 |
| QAHS | 0.398 |
| NPSR | ≤ 0.2 |
| QAIT | 0.291 |
| QHAW | ≤ 0.2 |

| Variant | one-hybrid fitness for binding NBS DNA |
| --- | --- |
| KQRG | ≤ 0.2 |
| WWAM | ≤ 0.2 |
| QMRQ | 0.437 |
| VNDV | ≤ 0.2 |
| AVSV | ≤ 0.2 |
| KNQK | ≤ 0.2 |
| KSSR | ≤ 0.2 |
| AWYW | ≤ 0.2 |
| FRVG | ≤ 0.2 |
| KKYC | ≤ 0.2 |
| VSCG | ≤ 0.2 |
| EAVS | ≤ 0.2 |
| KHYR | ≤ 0.2 |
| SHKE | ≤ 0.2 |
| MMAC | ≤ 0.2 |
| ADPH | ≤ 0.2 |
| HQES | ≤ 0.2 |
| NQRM | ≤ 0.2 |
